From the supplement of paper PMC3334620
Over roughly 33,000 sequences, “E-score (-0.5 to 0.5)” has its median near -0.016; the highest 2% begin near 0.31. The list shows a part of the results.

molecular target: Cst6 (UniProt P40535); assay: PBM E-score (8-mer binding enrichment) (E-score (-0.5 to 0.5)); higher = stronger / more preferred TF binding; most listed sequences are background and not binding sites; details: protein concentration: 200 nM; construct: GST-DNA-binding domain
Outline: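 E-scores (a modified Wilcoxon-Mann-Whitney statistic) were assigned by the Universal PBM Analysis Suite to every ungapped eight-base word pooled with its reverse complement. The input came from universal all-10-mer Agilent arrays made double-stranded by primer extension and probed with GST-tagged yeast transcription factors at about 100-200 nM. Fluorescent anti-GST detected bound protein, and masliner normalised the scans.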

Sequence	PBM E-score
CACACAAG	0.0242
CGGGACAC	-0.245
CAATGTTA	0.0121
AAAACTGG	-0.0155
ACCTCGCC	-0.31
ACAGCACT	-0.0241
TATACATA	0.295
CGAAGCAC	-0.0554
TCAGTTAA	0.175
ACTGCATG	0.0495
CCATCTGA	0.0151
CAAGCAAA	-0.0475
TTCAAAAA	0.171
TAAGCTTA	0.185
CACACATC	-0.0773
GTCGGACA	-0.0848
TGGAGACA	-0.126
GCTTTAGA	-0.187
AGGATATA	0.183
CCAGTGTA	-0.0483
ACAGCATG	0.0103
AATAGCCT	0.0007
CGGTTCTC	-0.159
CCGCTACG	-0.125
GAGGCACC	-0.0901

Sequence	PBM E-score
ACCTGTTG	0.0132
CAAGGGGC	-0.101
AAGACGCG	-0.111
ACATCCGA	-0.125
TAATGACA	0.347
ACACAATG	0.183
CACTTATC	0.174
CTGGGCAA	-0.048
ACTGGTAG	-0.0646
CAATTTAA	0.199
ACGACTTC	0.146
GGCGTACA	-0.0885
ATATTCAC	0.106
CCACGTCC	-0.214
ACTTTTTC	0.0891
CAGCCTCA	-0.106
AAAATAGC	-0.144
AGTAACTG	0.00693
ACGGACAA	0.0518
AGCAAACT	0.0792
CGTGTTGC	0.00207
CGATCGCG	0.0609
GCTAGCAC	-0.116
TACCCATA	-0.0917
GGGTGTGA	-0.14

Sequence	PBM E-score
CCTCCGCA	-0.322
CATCCATA	-0.0759
CACAGGAA	-0.0714
ACAATCGG	0.0962
GCATTGAC	0.235
GGTGTTAC	-0.0874
AACACGAC	-0.134
AATCTCAA	0.0209
CCACCTCA	-0.114
ACTTAGCA	-0.0634
GAGCTTCC	-0.124
CACCGCAA	0.131
GCTCCTCC	-0.0758
AGACAAAA	0.0317
ATGCTGGA	-0.0114
GCACTCGC	0.0139
GCAGCGGA	-0.147
AAGTGACA	0.357
AAGAAGAC	0.012
CAGAATTC	0.0696
AACCCACA	0.0177
CCCGATCA	-0.255
CACAGTGG	-0.124
GGACCGAC	-0.125
AACATGGA	-0.0776

Sequence	PBM E-score
GGGATAGA	-0.134
GATGTGCC	-0.0597
GACCTGGC	-0.37
AGTAACGG	0.016
GGGATCAC	-0.255
CGGCCCTC	-0.343
CCGATAGC	-0.29
AGGAGTAT	-0.0764
AGATAGCC	-0.286
CGCAGACC	-0.143
ATCTTCTG	0.0518
CCCGACGC	-0.272
CAAAGTGC	0.0144
GATCCTAC	-0.0235
ACTCCCCT	-0.329
CGCCACAA	0.0627
CGTGATTC	0.0631
ACGGGGGC	-0.3
TCGCCACA	0.054
CATAGTAA	0.313
CCTTTGAA	-0.0211
GGGGCCGA	-0.319
CTGTGGCA	-0.0921
TAGATCCA	-0.0888
AAGGTACT	-0.0715

Sequence	PBM E-score
ACTATCAC	0.0216
AAGTACCC	-0.275
CATATATC	0.121
ATCTGGCG	-0.0694
ACTCGTAA	0.204
CCTGTTAG	0.0225
GAGGCGGA	-0.284
CCAACAGC	-0.206
TGGTGACA	0.378
CCAGACAG	-0.194
ATCGCGAT	0.0818
ATCTCTGG	-0.167
CGCTGGTC	-0.237
AGGTGTAA	0.108
CGGATTAG	-0.0592
GCGGCTGA	-0.0549
TCCGCAAA	-0.104
AACGTCCA	0.0436
AAGATCTA	-0.0728
CCCTATAC	-0.113
CCCGGTGC	-0.264
ATTGGCGG	-0.00796
ACCCCAAG	-0.198
ATCGGACA	-0.131
CGGAAGCA	0.151

Sequence	PBM E-score
GACCTTAC	-0.038
CGTGAATA	0.267
AACTCACG	0.197
TAGTGAGA	0.101
TAGTTCAA	0.0411
CCTATACG	-0.156
AGTGGTCG	-0.259
GGAGTCCC	-0.27
ATCTAACA	0.0512
ATGGAGCG	-0.0703
CGGCGGTA	0.128
GGGAAGGA	-0.171
GTTATAGA	0.169
AAAAAATG	0.266
CCAACGGC	-0.171
CTCTTCGA	-0.125
CCGCGAGG	0.101
AGTCTCCC	-0.308
AGCGGACG	-0.102
CGCTGAAA	-0.0839
AGCTATAT	0.161
TCAATTCA	0.101
GCCTCCTA	-0.292
GGGCGAGA	-0.212
CCCTTCCC	-0.186

Sequence	PBM E-score
TAGCCTAA	-0.143
GTAGGGAC	0.0082
ACTGGTGC	-0.064
GAGGCGGC	0.2
CATATGAG	0.0643
GGCAGGAA	-0.21
GTACGGTA	0.0472
ACCAAGAC	-0.00643
ATCCGAAA	0.0268
GAGTAAAA	0.14
ACTAAATG	0.0893
CAGGAAGC	0.0578
GCGTGCAA	-0.209
AGTGCCAC	-0.0133
AAAACCGG	-0.011
AAGCTGGG	-0.266
AGATGTCC	-0.116
CTAAGACC	-0.119
CTCCATAA	0.0411
AAGTGCCG	0.125
GCTGGACA	-0.268
AAAAAACC	0.0474
